In PubChem BioAssay (NCI):
Where “and” joins values, the source holds several entries; their conditions need not be identical. Equal values may be shown once.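 Each compound was tested at five concentrations against cells in 96-well plates for 48 hours. At the GI50, growth is halved. TGI denotes the concentration required for complete inhibition of growth.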

system: NCI-H322M lung; test: inhibition of tumour cell growth, NCI panel, 48 h

SMILES	GI50	TGI
Nc1nc(Cl)c2ncn(Cc3ccc(C45CC6CC(CC(C6)C4)C5)c(OCc4cc(F)c(F)cc4F)c3)c2n1	7.49 µM	25.5 µM
COc1c(OC2OC(CO)C(O)C(O)C2O)cc2c(c1OC)-c1ccc(OC)c(=O)cc1C(NC(C)=O)CC2 (stereo not given)		> 100 µM
CCOC(=O)C[C@@]12CCCN[C@]1(C)CCc1ccccc12		> 100 µM
CCc1ccc(Oc2c(-c3ccc(OCc4ccc(Cl)cc4)cc3O)nn(C)c2C(F)(F)F)cc1	1.43 µM	4.17 µM
N#Cc1c(-c2ccccc2)c(-c2ccccc2)cc2c(=O)c3ccc(Cl)cc3[nH]c12		> 100 µM
CC(C)CNP(=O)(NCC(C)C)Oc1ccc(CC(NC(=O)OCc2ccccc2)C(=O)OCc2ccccc2)cc1 (stereo not given)		26.6 µM
COS(=O)c1cc(Cl)cc(Cl)c1OC(=O)CSSCC(=O)Oc1c(Cl)cc(Cl)cc1S(=O)OC (stereo not given)		42.8 µM
CN(Cc1cnc2nc(N)nc(N)c2n1)c1ccc(C(=O)NC(CCC(=O)O)C(=O)O)c2ccccc12 (stereo not given)		> 1000 µM
OCCNc1nc2ccccc2c2[nH]c3ccccc3c12	0.501 µM	3.86 µM
Cc1ccc(S(=O)(=O)OCCN(CCOS(=O)(=O)c2ccc(C)cc2)c2ccc(C=O)cc2)cc1		46.9 µM
Cc1ccc(-n2nc(C(OC3OC(CO)C(O)C(O)C3O)C(O)CO)c3nc4cc(C)c(C)cc4nc32)cc1 (stereo not given)		> 100 µM
O=C(Nc1nc(=S)[nH][nH]1)C(=O)C(c1cnc2ccc([N+](=O)[O-])cc2n1)[N+](=O)[O-] (stereo not given)		> 100 µM
S=C(Sc1ccc(Cl)cc1)Sc1ccc(Cl)cc1	5.67 µM	23 µM
CC1(C)C(=O)/C(=C/c2ccccc2)C(C)(C)C1(C)C		> 100 µM
COc1ccc2oc(=O)c(-c3cc4c(c(C)n3)c(=O)oc3ccc(OC)cc34)cc2c1		> 100 µM
O=C(O)C1CCC(=O)N1C(=O)COc1cc(Cl)c(Cl)cc1Cl (stereo not given)		> 100 µM
CCCCCCCCCCCCCCCCNc1nc(=O)n(C2OC(C)C(O)C2O)cc1F (stereo not given)		32.1 µM
O=C(CCCCN1CCN(CCCCC(=O)Nc2ccccc2C#C/C=C\C#Cc2ccccc2C(F)(F)F)CC1)Nc1ccccc1C#C/C=C\C#Cc1ccccc1C(F)(F)F	27.3 µM	> 50 µM
CC1(C)CCC[C@@]2(C)C1CC[C@@]1(CO)O[C@H](C3=CC(=O)OC3O)C[C@H]12 (stereo not given in full)		31.3 µM
COc1ccc(N(CC(=O)O)N=O)cc1		> 100 µM
CC(C)C(NCc1c2ccccc2[n+](C)c2ccccc12)C(=O)O (stereo not given)		26.9 µM
CNC(=O)OCc1nc(SSc2nc(COC(=O)NC)c(COC(=O)NC)n2C)n(C)c1COC(=O)NC		> 100 µM

SMILES	GI50	TGI
C#COc1cccc(Nc2ncnc3cc(NC(=O)[C@@H](C)Cl)ccc23)c1	23 µM	> 62.5 µM
N#Cc1cc(F)cc(Oc2ccc(S(=O)(=O)C(F)F)c3c2CC(F)(F)[C@H]3O)c1	60.6 µM	> 100 µM
CC(C)Oc1cccc(N2C(CCc3c[nH]c4ccc(Br)cc34)=NS(=O)(=O)c3cnccc32)c1		> 100 µM
CC(=O)CCC1(C(=O)OCC(C)C)CCCC1=O (stereo not given)		> 100 µM
COC(=O)C(Cc1ccccc1)NC(=O)C(CNC(=O)OCc1ccccc1)C(=O)OCc1ccccc1 (stereo not given)		> 100 µM
N=C(N)n1cc(/C=N/N=C(N)N)cn1		> 100 µM
CCOC(=O)[C@@H](C)C[C@H](Cc1ccccc1)NC(=O)c1csc([C@@H](C[C@H](C(C)C)N(C)C(=O)CNC(=O)[C@H]2CCCCN2C)OC(C)=O)n1	1.17 µM	> 14.3 µM
OCC1OC(OC2(CO)OC(CO)C(O)C2O)C(O)C(O)C1O (stereo not given)	> 100 µM	> 100 µM
CC(C)c1ccc(Cc2ccc(C(C)C)c(NC(=O)C(=O)Cc3cnc4ccccc4n3)c2C(C)C)c(C(C)C)c1NC(=O)C(=O)Cc1cnc2ccccc2n1		> 100 µM
Nc1nc(-c2ccccc2)c(CC(=O)O)s1		> 100 µM
NC(=O)c1nc(-c2c(F)cccc2Cl)oc1Nc1ccc(C(=O)N2CCOCC2)cc1	4.57 µM	> 100 µM
CCOC(=O)C1C(c2ccc(Br)cc2)N(Cc2ccccc2)C(c2ccc(Br)cc2)C(C(=O)OC)S1(=O)=O (stereo not given)		> 100 µM
CCCCCCCCCCCCCCCC(=O)OCC1OC(n2cc(F)c(=O)[nH]c2=O)C(NC(=O)OCc2ccccc2)C(O)C1O (stereo not given)		47.5 µM
Nc1c(C(=O)Nc2ccccc2)sc2nc3c(cc12)C(=O)CCC3	0.38 µM	> 100 µM
[N-]=[N+]=CC(=O)C1CCN(c2ccccc2)C1=O (stereo not given)		> 10 µM
CS(=O)(=O)OCCN1CCN(C(=O)c2ccc(Cl)c3c(Nc4ccc(S(=O)(=O)N=C(N)N)cc4)c4ccccc4nc23)CC1		> 100 µM
O=[N+]([O-])/C=C/c1ccc2ccccc2c1		> 60.7 µM
O=C(Nc1nc2ccc(S(=O)(=O)Nc3ccc(C4(C(F)(F)F)CC4)cc3)cc2[nH]1)c1cnccn1	6.1 µM	19.1 µM
COc1ccc(O[C@H](CO)C[C@@H]2COC(C)(C)O2)cc1		> 100 µM
Clc1[nH]nc2ccccc12		> 100 µM
O=C(O)c1ccccc1C(=O)c1ccco1		> 100 µM
COC(=O)[C@]12CC[C@@H](C)[C@H](C)[C@@H]1C1=CC[C@@H]3[C@@]4(C)C(C=O)=C[C@@](C)(COS(C)(=O)=O)C4=CC[C@@]3(C)[C@]1(C)CC2	0.515 µM	3.21 µM

SMILES	GI50	TGI
C#Cc1cccc(NC(=O)/C=C\C(=O)O)c1		> 100 µM
C/C(=N\NC(=S)NC(C)(C)C)c1nc2ncccc2[nH]1		> 100 µM
CCc1c(OC(C)=O)c2c(NC3OC(COC(C)=O)C(OC(C)=O)C(OC(C)=O)C3OC(C)=O)nc(SC)nc2oc1=O (stereo not given)		> 100 µM
CC[C@]1(c2ccc3c(c2)OCO3)C=[N+]([O-])O[C@H](OC2CCCC2(c2ccccc2)c2ccccc2)[C@@H]1OC(C)=O (stereo not given in full)		8.68 µM
O=C(Nc1cccc2ccccc12)c1cc2ccccc2oc1=O		> 100 µM
C1CN2CCO[SiH](O1)OCC2		> 100 µM
COc1ccc(S(=O)(=O)NC(CCC(=O)NC(N)=O)C(=O)NC(N)=O)cc1 (stereo not given)		> 100 µM
CN(C)c1cccc2c(S(=O)(=O)NCCN)cccc12		> 100 µM
CC(=O)Oc1cc2c(cc1OCC(F)(F)F)[C@H]1CC[C@]3(C)[C@@H](OC(C)=O)CC[C@H]3[C@@H]1CC2=O		38.6 µM
CC(C)N(C(=O)C12C3C4C1C1C4(C#N)C3C12C(=O)O)C(C)C (stereo not given)		> 100 µM
CC[n+]1c(-c2ccccc2)c2cc(N)ccc2c2ccc(N)cc21	2.67 µM and 3.03 µM and 7.56 µM	21.2 µM and 17.6 µM and 46.6 µM
CCOC(=O)c1cn(C)c2c(OC)c3ccccc3c(OC)c2c1=O	24 µM	74.7 µM
O=C(Nc1ccc(-n2cc(-c3ccncc3)c(-c3ccc(O)c(Cl)c3)n2)cc1)Nc1cc(C(F)(F)F)cc(C(F)(F)F)c1	2.96 µM	11.5 µM
C/C(=C/CCC(C)[C@@H]1CC[C@]2(C)C3=C(CC[C@@]12C)[C@@]1(C)CCC(=O)C(C)(C)[C@@H]1CC3)C(=O)O (stereo not given in full)	2.08 µM	3.85 µM
CC(C)(C)O/N=C/c1cc(NC(=S)c2ccccc2)ccc1Cl		70.2 µM
C[C@]12CCc3nc(Nc4ccc(O)cc4)sc3C1=CC[C@@H]1[C@@H]2CC[C@]2(C)/C(=N/NC(N)=S)CC[C@@H]12	1.84 µM	4.09 µM
Cn1c(CO)ccc1-c1ccc(-c2ccc(CO)[se]2)[se]1		> 100 µM
CC1=NC(=N)N=C(C)C1N=Nc1ccc2nc(C)[nH]c2c1 (stereo not given)		> 100 µM
CN1CCCc2nc3ccccc3n2C1		> 100 µM
CN(C)C1C(=O)C(C(N)=O)=C(O)C2(O)C(=O)C3=C(O)c4c(O)cccc4C(C)(O)C3CC12.[Cl][Sb]([Cl])[Cl] (stereo not given)	3.38 µM	11.7 µM
N#Cc1ccccc1Sc1ccccc1N		> 100 µM
O=c1[nH]ncc2[nH]c3c(c12)CCc1ccccc1-3		> 100 µM
